Measurements: PubChem BioAssay AID493208 (National Center for Advancing Translational Sciences (NCATS), 2011)
About 340 (0.77%) of roughly 44,000 compounds were called active. Another 5% or so got no clear call; they are omitted. Calls follow the shape of the dose curve; as a rule, active = well fitted inhibition curve with a large enough effect; inconclusive = small, poorly fitted or top-dose-only effect; inactive = flat fitted curve, though single readings scatter. The list shows a part of the results.

Test: Acumen qHTS Assay for Inhibitors of the mTORC1 Signaling Pathway in MEF (Tsc2-/-, p53-/-) Cells: Sytravon;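 also: plate controls were DMSO for no effect and rapamycin for full effect; nearly all actives have a fitted effect of over 50% in size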
Settings: phospho-rpS6 immunofluorescence/PI, 24 h; series mostly up to 38.3 µM; activity change, negative = inhibition: at the top concentration
In short: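 Plate MEFs (Tsc2-/-, p53-/-, empty vector) in DMEM/10% FBS; after 24 h add compound, incubate 24 h at 37 degree Celsius; fix in PFA/TX-100, block, stain phospho-rpS6 and 10 uM PI; scan at 488 nm; report % positive cells.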

SMILES	activity change, negative = inhibition
COc1ccc2c(c1)cc(CNc1ccc(OC)c(OC)c1)c(=O)n2CC(=O)Nc1ccc(F)cc1	inactive: -0.97%
CN(CC(=O)Nc1cccc(Cl)c1)S(=O)(=O)c1ccc2[nH]c3c(c2c1)CCCC3	inactive: 0.346%
O=S(=O)(NCC(c1ccco1)S(=O)(=O)c1ccccc1)c1ccccc1 (stereo not given)	inactive: -2.27%
Cc1c(C(=O)Nc2ccc(F)c(F)c2)oc2ccc(S(=O)(=O)N3CCCCC3)cc12	inactive: -1.11%
COc1ccccc1CNC(=O)CCCCn1c(=O)c2ccccc2n(Cc2c(C)cc(C)cc2C)c1=O	inactive: -14.2%
COc1ccc(CNC(=O)Cn2c(=O)oc3cc(S(=O)(=O)N4CCCCCC4)ccc32)cc1	inactive: -0.479%
COc1ccc(N2CCN(C(=O)CCc3c(C)nc4c(-c5ccccc5)c(C)nn4c3C)CC2)cc1	inactive: 0.724%
COc1ccc(CCNC(=O)c2ccc3c(c2)N(Cc2ccc(C)cc2)CCS3)cc1OC	inactive: -13%
CC1=C(C(N)=O)C(c2ccc(C(C)C)cc2)n2nc(SCc3ccccc3)nc2N1 (stereo not given)	inactive: -11.6%
Cc1cc(N2CCN(C)CC2)nc2ccc(NC(=O)Nc3ccccc3Br)cc12	inactive: 5.06%
CCOc1ccc(S(=O)(=O)N(CC(=O)Nc2cccnc2)c2ccccc2)cc1	inactive: -21.1%
Cc1cc(C)n2nc(SCC(=O)Nc3cc(Cl)ccc3C)nc2n1	inactive: 1.95%
CCOC(=O)c1cccc(NC(=O)CC(c2cc(OC)c(OC)c(OC)c2)N2Cc3ccccc3C2=O)c1 (stereo not given)	inactive: 0%
CCn1c(=NC(=O)c2ccc(S(=O)(=O)N3CCCCC3)cc2)sc2cccc(OC)c21	inactive: -1.66%
CCc1nn2c(-c3ccccc3OC)ccnc2c1-c1ccc(F)cc1	inactive: -0.134%
COC(=O)c1ccc(NC(=O)CCc2c(C)nc3c(c(C)nn3-c3ccc(C)cc3)c2C)cc1	inactive: -11.1%
Oc1c(C(c2ccccc2F)N2CCOCC2)sc2nc(-c3ccco3)nn12 (stereo not given)	inactive: -0.994%
CCOC(=O)C1CCN(c2c(C(=O)c3ccc(OCC)cc3)cnc3ccc(OC)cc23)CC1	inactive: 6.38%
Cc1cccc(NC(=O)c2oc3c(c2C)-c2[nH]ncc2CC3)c1C	inactive: -13.5%
CCN(c1ccccc1)S(=O)(=O)c1ccc2[nH]cc(C(=O)NC3CCCCC3)c(=O)c2c1	inactive: -0.517%
Cc1nc2c(C(=O)NCc3ccccc3Cl)c[nH]n2c(=O)c1Cc1cccc(Cl)c1	inactive: 0.953%
CC(NC(=O)CSc1n[nH]c(-c2ccccc2Cl)n1)c1nc2ccccc2n1C (stereo not given)	inactive: 0%
Cc1c(Cl)cccc1NC(=O)CC(c1cccs1)N1Cc2ccccc2C1=O (stereo not given)	inactive: -5.77%
CCOc1ccc(NC(=O)CN2CCN(Cc3ccccc3)S2(=O)=O)cc1	inactive: 0%

SMILES	activity change, negative = inhibition
COc1c(C)cc(S(=O)(=O)Nc2cccc(-c3ccc(N4CCOCC4)nn3)c2)c(C)c1C	inactive: 4.89%
CCCCN(C)CCCNC(=O)CN1C(=O)COc2ccc(S(=O)(=O)N3CCC(C)CC3)cc21	inactive: -2.06%
CCOC(=O)N1CCc2c(sc(NCc3sccc3C)c2C(=O)Nc2cc(OC)ccc2OC)C1	inactive: -5.15%
Cc1cc(=O)[nH]c2nnc(SCc3ccc(Cl)c(Cl)c3)n12	inactive: -0.681%
COc1cccc(NC(=O)CSc2cc(=O)n(C)c3ccc(Cl)cc23)c1	inactive: -2.67%
CCCCNC(=O)C1CCN(C(=O)N2CC(C)Oc3ccc(Cl)cc32)CC1 (stereo not given)	inactive: 3.28%
CCOc1ccccc1-n1c(C)nc2cc(C(=O)O)ccc21	inactive: 0.873%
Cc1cccc(C(=O)N2CCc3cc(CNC(=O)c4ccnn4C)ccc32)c1	inactive: -8.59%
CCOc1ccccc1NC(=O)CN1C(=O)COc2ccc(S(=O)(=O)N3CCCCCC3)cc21	inactive: -0.983%
COc1ccc(NC(=O)c2c(C(=O)Nc3ccccc3)sc3nc(C)cc(=O)n23)cc1	inactive: 1.83%
CCOc1ccccc1NC(=O)Cc1coc2c(C)c(C)ccc12	inactive: -9.43%
N#C/C(=C\c1ccc(F)cc1)C(=O)NCC1CCCO1 (stereo not given)	inactive: -5.1%
Cc1ccc(CCNC(=O)C(CC(C)C)NS(=O)(=O)c2ccc3c(c2)oc(=O)n3C)cc1 (stereo not given)	inactive: 0.766%
O=C(CCCn1c(=O)[nH]c2ccccc2c1=O)NCc1ccccc1Cl	inactive: -0.289%
CCc1nn(CC(=O)NCCCOC)c(=O)c2cc3occc3n12	inactive: -11.1%
COc1cccc(NC(=O)CSc2nc3ccc(NC(=O)c4ccco4)cc3s2)c1	inactive: -10.9%
CCCN(CCC)CCCNC(=O)Cn1cnc2onc(-c3ccc(F)cc3)c2c1=O	inactive: -1.6%
O=C(Cn1cnc2c(nc3n2CCCCC3)c1=O)Nc1ccc(F)cc1	inactive: -4.91%
Cc1ccc(-c2nnc(Nc3ccc(Br)cc3)c3ccccc23)cc1S(=O)(=O)N1CCCCC1	inactive: 16.8%
COC(=O)C(C)Sc1nnc2cc(C)c3cc(C)cc(C)c3n12 (stereo not given)	inactive: 0.52%
COc1cc(-c2cc(OC)c3c(C)oc(C)c3c(=O)c2)ccc1OC(=O)c1ccccc1C	inactive: -8.81%
O=C(CN1C(=O)C(c2ccc(F)cc2)=NC12CCCCCC2)Nc1ccc(F)c(Cl)c1	inactive: -7.8%
CCC(=O)NC1CC(=O)N(c2ccc3c(c2)OCCO3)C1 (stereo not given)	inactive: 1.49%
Cc1ccc2c(=O)cc(C(=O)Nc3c(C)n(C)n(-c4ccccc4)c3=O)oc2c1C	inactive: 2.08%

SMILES	activity change, negative = inhibition
COc1ccccc1NC(=O)Cn1c(=O)n(Cc2ccco2)c(=O)c2oc3ccccc3c21	inactive: -5.68%
Cc1cc(C)c2c(-n3cccc3)c(C(=O)NCCc3ccc(Cl)cc3)sc2n1	inactive: -5.53%
CN(C(=O)c1nc(-c2cccc(F)c2)n2c1CCCCC2)c1ccccc1F	inactive: -7.65%
CCCOc1ccc(NC(=O)CC2C(=O)N(c3ccccc3)C(=O)N2CCC(C)C)cc1 (stereo not given)	inactive: -1.81%
COc1cc(C2c3c(-c4ccccc4O)n[nH]c3C(=O)N2Cc2ccncc2)ccc1O (stereo not given)	inactive: -4.88%
Cc1ccccc1NC(=O)c1ccccc1NC(=O)c1ccccc1Cl	inactive: 7.47%
COc1cccc(CNC(=O)CC(c2ccc(F)cc2)N2Cc3ccccc3C2=O)c1 (stereo not given)	inactive: -1.5%
CCc1ccc(NC(=O)CSc2ccc3nnc(CCNS(=O)(=O)c4ccc(OC)cc4)n3n2)cc1	inactive: 0.621%
CCc1ccc(NC(=O)C2CCN(c3cc(C)nc4c(-c5ccc(Cl)cc5)c(C)nn34)CC2)cc1	inactive: -7.37%
Cc1nc2ccc(S(=O)(=O)CCC(=O)Nc3ccc(F)cc3C)cc2s1	inactive: -4.93%
COc1cc(Cl)c(NC(=O)C2CCN(S(=O)(=O)c3c(C)noc3/C=C/c3ccccc3F)CC2)c(OC)c1	inactive: 4.18%
CC(C)c1ccc(NC(=O)CCCc2nc(-c3ccc(Cl)cc3)no2)cc1	inactive: -5.75%
Cc1ccc(C2=Nc3ccccc3NC(c3ccncc3)=N2)cc1	inactive: 1.42%
CCOc1ccc(-c2nc3c(C#N)c[nH]n3c2NC2CCCC2)cc1	inactive: -9.13%
CNS(=O)(=O)c1cn(CC(=O)Nc2ccc(C)cc2C)cc1S(=O)(=O)NC	inactive: 0.351%
COc1ccc(NS(=O)(=O)c2ccc(NC(=O)N3CCCC3)cc2)cc1	inactive: -0.818%
CCOC(=O)c1cc(-c2ccc(C)cc2)nn1Cc1ccccc1	inactive: -6.17%
Cc1ccc(-c2cn3c(n2)sc2cc(C(=O)NCCCc4ccccc4)ccc23)cc1	inactive: 5.23%
COc1ccc(CCNC(=O)CCc2c(C)nc3c(c(C)nn3-c3ccc(C)cc3)c2C)c(OC)c1	inactive: 0.0607%
CCc1ccccc1NC(=O)C1CCCN(S(=O)(=O)c2cccc3nsnc23)C1 (stereo not given)	inactive: -0.11%
COc1ccc(-c2cc(C(=O)Nc3c(Cl)cccc3Cl)no2)cc1OC	inactive: -22.1%
Cc1ccc(-n2c3c(c(=O)[nH]c2=O)C(NC(=O)c2ccccc2F)(C(F)(F)F)C(=O)N3)cc1C (stereo not given)	inactive: 3.98%
CCN(CCCNC(=O)c1cc2c(=O)n(CC)c3ccccc3c2s1)c1cccc(C)c1	inactive: -8.49%
Cc1ccccc1-c1nc(CS(=O)(=O)CC(=O)NC(C)c2ccccc2)c(C)o1 (stereo not given)	inactive: 1.26%

SMILES	activity change, negative = inhibition
COc1ccc2c(c1)c(=O)c(S(=O)(=O)c1ccc(C)c(C)c1)cn2CC(=O)Nc1ccccc1	inactive: -4.6%
COc1ccc(Cl)cc1NC(=O)CN(c1cc(C)cc(C)c1)S(=O)(=O)c1c(C)n[nH]c1C	inactive: -15.2%
CCc1ccc(NC(=O)c2cc3c(=O)n(Cc4cccs4)ccc3nc2C)cc1	inactive: -18.2%
O=C(Nc1cc(F)ccc1F)C1COc2ccccc2C1 (stereo not given)	inactive: -4.83%
COc1cc(-c2noc(C3CC(=O)N(c4ccc5c(c4)OCCO5)C3)n2)cc(OC)c1OC (stereo not given)	inactive: -11.2%
Cc1ccc(CNc2ccc(-c3nc(-c4ccco4)no3)cc2[N+](=O)[O-])cc1	inactive: 0.226%
Cc1ccc(S(=O)(=O)c2nc(-c3ccccc3)oc2N2CCN(c3ccccc3)CC2)cc1	inactive: -9.37%
COc1ccc(C(=O)Nc2ccc(-n3nncc3-c3ccc(OC)c(OC)c3)cc2)cc1	inactive: 6.4%
Cc1ccc(-c2cc(C(=O)O)n(Cc3ccccc3)n2)cc1	inactive: -1.84%
Cc1nn(CC(=O)NCCc2ccccc2Cl)c(=O)c2nn(-c3ccccc3)c(C)c12	inactive: -4.5%
O=S(=O)(c1ccccc1)N1CCC(c2ccncc2)CC1	inactive: 1.5%
O=C1COc2cc(S(=O)(=O)CCC(=O)N3CCN(c4cccc(Cl)c4)CC3)c(Cl)cc2N1	inactive: 6.29%
CCOc1ccc(CNC(=O)Cn2nc(C)c3nn(-c4ccc(Cl)cc4)c(C)c3c2=O)cc1OC	inactive: 11.2%
COc1ccc(CNCc2c(C(=O)O)c(C)n(Cc3ccc(Cl)cc3)c2C)c(OC)c1	inactive: -0.203%
CC(=O)c1cc(-c2ccc(F)cc2)n(CCC(=O)Nc2nc3c(C)cccc3s2)c1C	inactive: -7.24%
Cc1ccc2c(c1)c1c(c(=O)n(-c3ccccc3C)c(=O)n1CC(=O)NCCC1=CCCCC1)n2C	inactive: -0.338%
Cc1ccc(-c2cc(C(=O)Nc3c(C(=O)c4ccccc4)oc4ccccc34)no2)cc1F	inactive: -0.906%
Cc1ccc(Cc2nc3ccccc3nc2SCC(=O)Nc2cccc(C(F)(F)F)c2)cc1	inactive: 2.03%
COC(=O)c1cnn(-c2ccc(C(=O)Nc3ccc(C(C)=O)cc3)cc2)c1N	inactive: -1.06%
O=C(CN1CCSc2ccccc21)N1CCN(c2cccc(Cl)c2)CC1	inactive: -0.474%
Cc1ccc(-n2ncc3c(NC4CCCCC4)ncnc32)cc1	inactive: 8.11%
Cc1ccc(CNS(=O)(=O)c2c(C)nc3scc(C)n3c2=O)cc1	inactive: 7.46%
CC(C)(C)c1ccc(S(=O)(=O)NCc2nc3cccnc3n2Cc2ccccc2Cl)cc1	inactive: -16.4%
